This is an account of results in ChEMBL document CHEMBL4888484, “Replenishing the malaria drug discovery pipeline: Screening and hit evaluation of the MMV Hit Generation Library 1 (HGL1) against asexual blood stage Plasmodium falciparum ,using a nano luciferase reporter read-out” (2022).

Each structure is given as a SMILES string. The campaign covered roughly 150,000 compounds. About 540 (0.36%) showed an effect of 50% or more. The list shows a part of the results.

For the test, the system named is Plasmodium falciparum. In words: Primary screen in NF54 nanoGlo assay, in single point, at 2uM, 72h; a lower Z score goes with more inhibition. Format: functional, Erythrocyte. The following applies: timepoint 72 hour.
One may read the % Inhibition as the change of the read-out against control, counted positive when it falls. In the case of `CCN(CCC(=O)NCCOC)C(=O)c1cc2n(n1)CCCN(Cc1ccc(C)cc1)C2=O`, the “% Inhibition” value is recorded as -10% and the Z score amounted to 1.92.

On to `CN(C)CCOc1ccc(CNc2ccnc(C3CC3)n2)cc1`, for which the “% Inhibition” value is on record as 9% and the Z score was -1.16.

As for `O=C1OC2(CCN(C(=O)c3cccc(C(F)(F)F)c3)CC2)c2ccccc21`, the “% Inhibition” value is -14% and the Z score is on record as 2.75.

Turning to `CC(C)(C)S(=O)(=O)CC(=O)N(C1CCCC1)C1CCCC1`, the “% Inhibition” value turned out to be 0% and the Z score was 0.04.

As to `COCCNc1nc(-c2ccc3c(c2)OCO3)cc(-c2c(C)nn(C)c2C)n1`, the “% Inhibition” value is recorded as -10% and the Z score came to 1.84.

With `CN(C)C(=O)Cn1c(=O)n(CCc2ccccc2)c2ccc(C(=O)O)cc21`, the “% Inhibition” value was determined as 2% and the Z score is -0.32.

Consider `Cc1nn(C)c(C)c1S(=O)(=O)N1CCC(n2ccnn2)CC1`, for which the “% Inhibition” value is recorded as -18% and the Z score was determined as 2.83.

With `CN1C(=O)Cc2cc(-c3ccc4c(c3)CCN4)cnc21`, the “% Inhibition” value is recorded as -4% and the Z score is listed as 0.68.

Consider `COc1ccccc1-n1nc(Cc2ccccc2)n(CC(=O)N[C@@H](C)CO)c1=O`, for which the “% Inhibition” value is given as -5% and the Z score is on record as 0.91.

As for `Cc1ccsc1-c1c(-c2ccccc2)ncn1CCF`, the “% Inhibition” value is reported as -13% and the Z score was 1.64.

On to `CC(C)(C)NC(=O)NCCc1ccoc1`, for which the “% Inhibition” value was -3% and the Z score came out at 0.43.

Take `CC(=O)N1CCCC(C(=O)N2CC(C)C2c2ccccc2)C1` (stereo not given): the “% Inhibition” value was 6% and the Z score is on record as -1.03.

Regarding `CCO[C@H]1C[C@@H](O)C12CCN(Cc1nnc(C3CC3)o1)CC2`, the “% Inhibition” value is listed as 10% and the Z score is -1.82.

Regarding `COC[C@H](NC(=O)c1c(C)[nH]c(C)cc1=O)c1ccccn1`, the “% Inhibition” value is -13% and the Z score is listed as 2.32.

As for `CCc1noc(C(C)N(C)CC(C)c2nccs2)n1` (stereo not given), the “% Inhibition” value is reported as -16% and the Z score is on record as 2.06.

On to `COCn1nccc1S(=O)(=O)N1CC(F)(F)C1`, for which the “% Inhibition” value is on record as -11% and the Z score turned out to be 1.66.

On to `CC(C)=CCO[C@H]1COCC[C@@H]1NC(=O)c1cccnc1`, for which the “% Inhibition” value is -5% and the Z score is listed as 0.67.

In the case of `C[C@@H](CN1CCC(n2cncn2)CC1)c1cccc(Cl)c1`, the “% Inhibition” value was -8% and the Z score was found to be 1.06.

Consider `O=C(NCc1cccs1)N1CCN(C[C@H](O)C2CC2)CC1`, for which the “% Inhibition” value worked out at 5% and the Z score is reported as -1.03.

`CCn1ccc(C(=O)N2CC[C@H](OCc3ccccc3)C2)n1`: the “% Inhibition” value is -11% and the Z score is given as 1.24.

On to `COc1ccc(N2CCN(C(=O)c3cnns3)CC2)nc1`, for which the “% Inhibition” value is -6% and the Z score is 0.9.

`Cn1cc([C@@H]2CCCN2Cc2cnn(-c3ccccc3)n2)cn1`: the “% Inhibition” value was -1% and the Z score came out at 0.18.

With `Cc1ccc(NC(=O)N2C3C=CCC2CC3)cc1C` (stereo not given), the “% Inhibition” value worked out at 10% and the Z score was -1.83.

As for `COc1ccc(CNC(=O)C[C@@H]2Oc3ccc(Cl)cc3NC2=O)cc1`, the “% Inhibition” value is -12% and the Z score came out at 1.47.

In the case of `C[C@@H](CNC(=O)C(=O)Nc1cccc(C#N)c1)CN1CCN(C)CC1`, the “% Inhibition” value was -7% and the Z score amounted to 0.63.

Regarding `COCCc1noc(-c2nc(-c3ccc4c(c3)OCO4)no2)n1`, the “% Inhibition” value is reported as -7% and the Z score is reported as 1.19.

Regarding `COc1ccccc1CCC(=O)N1C[C@H]2CC[C@@H](C1)N(CC1CC1)C2=O`, the “% Inhibition” value is recorded as 0% and the Z score was -0.06.

With `CCN(C(=O)c1nn(C)c2ccc(C)cc12)[C@H]1COC[C@@H]1O`, the “% Inhibition” value was 5% and the Z score is recorded as -1.

Take `CC[C@H](C)S(=O)(=O)Nc1cccc(Cl)c1`: the “% Inhibition” value is -6% and the Z score is reported as 0.71.

Take `CC[C@@H](c1cccc(OC)c1)N(C)CCn1ccnc1`: the “% Inhibition” value is on record as -5% and the Z score was 0.8.

With `Cc1ccc(NC(=O)Cn2c(C)nc3c(c2=O)CN(Cc2cccc(C)c2)CC3)cc1`, the “% Inhibition” value was -10% and the Z score is 1.44.

In the case of `Cn1cc(C(F)(F)F)nc1[C@H]1CCCN(C(=O)Cn2cnnn2)C1`, the “% Inhibition” value is recorded as -4% and the Z score was found to be 0.51.

As to `COc1cc(F)cc(CN=C2NCCCCN2)c1`, the “% Inhibition” value is on record as -5% and the Z score stood at 1.02.

As for `C[C@@H](Cc1cn(C)c2ccc(F)cc12)Nc1ncnc2c1ncn2C`, the “% Inhibition” value is on record as -4% and the Z score was 0.69.

Regarding `CCO[C@H]1CN(Cc2ccc(OC)c(Cn3cccn3)c2)C[C@@H]1O`, the “% Inhibition” value came to 7% and the Z score is reported as -1.27.

Turning to `F[C@@]1(c2nc(-c3ccccc3)no2)CCCN(CC2CCCCC2)C1`, the “% Inhibition” value was -9% and the Z score stood at 1.16.

Regarding `CNC(=O)C1CN(C(=O)CCC(C)OC)CCO1` (stereo not given), the “% Inhibition” value amounted to 7% and the Z score is on record as -0.85.

Regarding `Cc1ncccc1-c1nc(-c2cccc(-n3c(C)c[nH]c3=O)c2)no1`, the “% Inhibition” value was -1% and the Z score amounted to 0.2.

Consider `CCN(CCCC(=O)O)[C@@H](C)c1cccc(O)c1`, for which the “% Inhibition” value is recorded as -3% and the Z score came to 0.37.

`CCOc1ccc(NC(=O)N(C)c2c(C)noc2C)cn1`: the “% Inhibition” value is on record as 7% and the Z score is listed as -1.2.

As to `Cc1ccc(-n2cccn2)c(CN2CCC(CCC(=O)N3CCCC3)CC2)c1`, the “% Inhibition” value is reported as -3% and the Z score amounted to 0.54.

`CO[C@@]1(C(F)(F)F)CCCN(Cc2cc(=O)n3nc(N)[nH]c3n2)C1`: the “% Inhibition” value is given as -14% and the Z score was determined as 1.53.

As for `CNc1nn(CC(=O)NCc2ccccc2Cl)c(N)c1-c1nc(-c2ccc(Cl)cc2)no1`, the “% Inhibition” value was determined as 2% and the Z score is -0.24.

With `CC1(C#N)CCCN(CC(O)CN2CCCC(C)(C#N)C2)C1` (stereo not given), the “% Inhibition” value was 2% and the Z score is listed as -0.26.

As for `Cn1cc(C(=O)NCC2CCN(C(=O)c3ccc(-c4nc(C5CC5)n[nH]4)cc3)CC2)cn1`, the “% Inhibition” value is on record as -15% and the Z score worked out at 2.36.

Consider `CCc1nn(C)c(Cl)c1CN1CCC[C@H]1c1nccs1`, for which the “% Inhibition” value is reported as -9% and the Z score is listed as 1.04.

Regarding `Fc1cc(CNc2nncc(-c3ccc4c(c3)OCO4)n2)cc(C(F)(F)F)c1`, the “% Inhibition” value stood at 3% and the Z score is recorded as -0.6.

For the molecule `Cc1ccc(-n2ncc3c(=O)n(CC(=O)N4CCCc5ccccc54)cnc32)c(C)c1`, the “% Inhibition” value came out at 10% and the Z score is reported as -1.34.

Consider `CCN(CCCCO)C(=O)Nc1ccc(F)c(C)c1`, for which the “% Inhibition” value is listed as -13% and the Z score is on record as 1.95.

In the case of `CCN(Cc1nc(C)no1)C(=O)Nc1cc(-c2nnn(C)n2)ccc1C`, the “% Inhibition” value came to 0% and the Z score is 0.09.

Turning to `CCOC(=O)[C@H]1CCCN(Cn2nc(Cc3ccc(OC)cc3)oc2=S)C1`, the “% Inhibition” value is on record as -5% and the Z score stood at 0.69.

As for `CC1CN(C(=O)Cn2cc(C3CC3)nn2)CC(C)N1` (stereo not given), the “% Inhibition” value is reported as 4% and the Z score is -0.73.

Take `Cc1nc(C)c(CN2CCC[C@H](C(=O)Nc3ccc(-c4ccco4)cc3)C2)nc1C`: the “% Inhibition” value turned out to be 2% and the Z score was -0.39.

Take `Cc1noc(C)c1CN(C)C(=O)[C@H](CC(C)C)NS(C)(=O)=O`: the “% Inhibition” value was -13% and the Z score is 1.99.

Take `Cc1cc(C(=O)NCc2cccnc2Oc2ccc(F)c(F)c2)nc(N)n1`: the “% Inhibition” value was -12% and the Z score is 1.36.
